Consider one compound from patent US20180318381A1, “Methods of Treatment of Rhabdomyolysis” (University of Pittsburgh - Of the Commonwealth System of …, priority 2015, published 2018).

The test system of this assay is patients with LC-FAODs. The following applies: after initiation vs before-treatment period; n=16 subjects >6 months of age; P=0.1126.

As to `CCCCCCC(=O)OCC(COC(=O)CCCCCC)OC(=O)CCCCCC` [triheptanoin, 1,3-di(heptanoyloxy)propan-2-yl heptanoate], the “lower hospitalization event rate (trend)” value turned out to be 35%.
